This is one part of the list. The list includes weakly bound sequences.

The experiment concerns the target T1, MBP-FoxP3dN (UniProt Q99JB6).
T1 sequence: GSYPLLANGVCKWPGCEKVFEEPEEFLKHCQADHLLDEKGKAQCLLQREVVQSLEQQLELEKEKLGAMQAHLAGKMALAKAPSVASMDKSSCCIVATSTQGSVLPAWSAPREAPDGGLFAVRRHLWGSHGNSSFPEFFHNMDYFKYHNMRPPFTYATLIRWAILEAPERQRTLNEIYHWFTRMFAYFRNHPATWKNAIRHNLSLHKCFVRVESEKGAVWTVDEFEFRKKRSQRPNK
In words: PD-seq (MBP pull-down with sequencing). Conditions: 20 mM Tris-HCl pH 7.5, 100 mM NaCl, 1.5 mM MgCl2, 0.4 uM protein, 0.1 uM dsDNA library, 30 min, room temperature, amylose pull-down; high values mean tight binding; double strand, one strand shown.
Consider “GATGATTGTTCTCCCAGCTGATGAATTCGTTCTTTCGAGTAAACAAATTTTCCTAATCTTTCTGTTCAAGCGCCATCTAC”, for which the binding signal (RPM ratio (pull-down/input)) stood at 0.263.
As to “GATGATTGTTCTCCCAGCTGATGAATTTTTGCGTTCGAGTAAACAAATTTTCCTAATCTTTCTGTTCAAGCGCCATCTAC”, the binding signal (RPM ratio (pull-down/input)) worked out at 2.04.
The result for “GATGATTGTTCTCCCAGCTGATGAATTATAAGCATCGAGTAAACAAATTTTCCTAATCTTTCTGTTCAAGCGCCATCTAC” reads 1.08.
The result for “GATGATTGTTCTCCCAGCTGATGAATTTGTATTATCGAGTAAACAAATTTTCCTAATCTTTCTGTTCAAGCGCCATCTAC” reads 5.3; that for “GATGATTGTTCTCCCAGCTGATGAATTACCCCGCTCGAGTAAACAAATTTTCCTAATCTTTCTGTTCAAGCGCCATCTAC”, 0.235.
As to “GATGATTGTTCTCCCAGCTGATGAATTGCGTTTCTCGAGTAAACAAATTTTCCTAATCTTTCTGTTCAAGCGCCATCTAC”, the binding signal (RPM ratio (pull-down/input)) was 1.96.
For “GATGATTGTTCTCCCAGCTGATGAATTGTGCATGTCGAGTAAACAAATTTTCCTAATCTTTCTGTTCAAGCGCCATCTAC”, the binding signal (RPM ratio (pull-down/input)) stood at 7.05.
For “GATGATTGTTCTCCCAGCTGATGAATTTAATTGATCGAGTAAACAAATTTTCCTAATCTTTCTGTTCAAGCGCCATCTAC”, the binding signal (RPM ratio (pull-down/input)) was found to be 1.66.
The result for “GATGATTGTTCTCCCAGCTGATGAATTGTTCCATTCGAGTAAACAAATTTTCCTAATCTTTCTGTTCAAGCGCCATCTAC” reads 0.579; that for “GATGATTGTTCTCCCAGCTGATGAATTTGAAACGTCGAGTAAACAAATTTTCCTAATCTTTCTGTTCAAGCGCCATCTAC”, 0.266.
Consider “GATGATTGTTCTCCCAGCTGATGAATTTAAGTTATCGAGTAAACAAATTTTCCTAATCTTTCTGTTCAAGCGCCATCTAC”, for which the binding signal (RPM ratio (pull-down/input)) was 0.821.
As for “GATGATTGTTCTCCCAGCTGATGAATTCGAATACTCGAGTAAACAAATTTTCCTAATCTTTCTGTTCAAGCGCCATCTAC”, the binding signal (RPM ratio (pull-down/input)) is 0.672.
For “GATGATTGTTCTCCCAGCTGATGAATTTGTCTACTCGAGTAAACAAATTTTCCTAATCTTTCTGTTCAAGCGCCATCTAC”, the binding signal (RPM ratio (pull-down/input)) was 5.77.
Take “GATGATTGTTCTCCCAGCTGATGAATTTATATGGTCGAGTAAACAAATTTTCCTAATCTTTCTGTTCAAGCGCCATCTAC”: the binding signal (RPM ratio (pull-down/input)) came out at 1.94.
For the sequence “GATGATTGTTCTCCCAGCTGATGAATTAAGCTGGTCGAGTAAACAAATTTTCCTAATCTTTCTGTTCAAGCGCCATCTAC”, the binding signal (RPM ratio (pull-down/input)) was 0.569.
“GATGATTGTTCTCCCAGCTGATGAATTTTTTCACTCGAGTAAACAAATTTTCCTAATCTTTCTGTTCAAGCGCCATCTAC”: the binding signal (RPM ratio (pull-down/input)) is 0.248.
For “GATGATTGTTCTCCCAGCTGATGAATTAGTATCCTCGAGTAAACAAATTTTCCTAATCTTTCTGTTCAAGCGCCATCTAC”, the binding signal (RPM ratio (pull-down/input)) was determined as 2.39.
In the case of “GATGATTGTTCTCCCAGCTGATGAATTTATTTCCTCGAGTAAACAAATTTTCCTAATCTTTCTGTTCAAGCGCCATCTAC”, the binding signal (RPM ratio (pull-down/input)) was determined as 3.45.
Turning to “GATGATTGTTCTCCCAGCTGATGAATTTGCTACATCGAGTAAACAAATTTTCCTAATCTTTCTGTTCAAGCGCCATCTAC”, the binding signal (RPM ratio (pull-down/input)) was 0.944.
Consider “GATGATTGTTCTCCCAGCTGATGAATTGCTTAATTCGAGTAAACAAATTTTCCTAATCTTTCTGTTCAAGCGCCATCTAC”, for which the binding signal (RPM ratio (pull-down/input)) stood at 0.562.
As for “GATGATTGTTCTCCCAGCTGATGAATTAGGGTGGTCGAGTAAACAAATTTTCCTAATCTTTCTGTTCAAGCGCCATCTAC”, the binding signal (RPM ratio (pull-down/input)) came to 0.516.
Turning to “GATGATTGTTCTCCCAGCTGATGAATTGTTCCACTCGAGTAAACAAATTTTCCTAATCTTTCTGTTCAAGCGCCATCTAC”, the binding signal (RPM ratio (pull-down/input)) turned out to be 0.496.
On to “GATGATTGTTCTCCCAGCTGATGAATTATTAACATCGAGTAAACAAATTTTCCTAATCTTTCTGTTCAAGCGCCATCTAC”, for which the binding signal (RPM ratio (pull-down/input)) was 0.662.
The result for “GATGATTGTTCTCCCAGCTGATGAATTACTCGGGTCGAGTAAACAAATTTTCCTAATCTTTCTGTTCAAGCGCCATCTAC” reads 0.235; that for “GATGATTGTTCTCCCAGCTGATGAATTTGTAGAATCGAGTAAACAAATTTTCCTAATCTTTCTGTTCAAGCGCCATCTAC”, 0.778; that for “GATGATTGTTCTCCCAGCTGATGAATTGGATTTTTCGAGTAAACAAATTTTCCTAATCTTTCTGTTCAAGCGCCATCTAC”, 0.676.
In the case of “GATGATTGTTCTCCCAGCTGATGAATTCCCAAATTCGAGTAAACAAATTTTCCTAATCTTTCTGTTCAAGCGCCATCTAC”, the binding signal (RPM ratio (pull-down/input)) was 0.278.
With “GATGATTGTTCTCCCAGCTGATGAATTTTGGAGGTCGAGTAAACAAATTTTCCTAATCTTTCTGTTCAAGCGCCATCTAC”, the binding signal (RPM ratio (pull-down/input)) was determined as 0.257.
For “GATGATTGTTCTCCCAGCTGATGAATTGTCTTTATCGAGTAAACAAATTTTCCTAATCTTTCTGTTCAAGCGCCATCTAC”, the binding signal (RPM ratio (pull-down/input)) amounted to 1.08.
“GATGATTGTTCTCCCAGCTGATGAATTAACGTGTTCGAGTAAACAAATTTTCCTAATCTTTCTGTTCAAGCGCCATCTAC”: the binding signal (RPM ratio (pull-down/input)) came to 0.622.
As to “GATGATTGTTCTCCCAGCTGATGAATTACCTGTTTCGAGTAAACAAATTTTCCTAATCTTTCTGTTCAAGCGCCATCTAC”, the binding signal (RPM ratio (pull-down/input)) stood at 0.472.
“GATGATTGTTCTCCCAGCTGATGAATTGTGTGACTCGAGTAAACAAATTTTCCTAATCTTTCTGTTCAAGCGCCATCTAC”: the binding signal (RPM ratio (pull-down/input)) was found to be 2.06.
